Drawing on the RNAGym collection of RNA variant scans (doi:10.7554/elife.90254), this text covers self-cleavage for 56 variants.

The source gives no read counts; variants with many changes may rest on few reads.

The chains are these.
B1: LINE1-mini (parent)
chain: GGCAGAGCUCAACACAGCGUGGCAAAGUGGCUGUGGCUAGACUGCC

In the data set the parent is B1. Briefly: self-cleavage, relative activity (ratio to wild type); higher = more cleavage; in vitro, sequencing; the parent is a self-cleaving ribozyme.
As to GGCAGAGCUUAACACAGCGUGGCAAAGUUGCUAUGGCUAGACUGCC [C10U G29U G33A], the self-cleavage stood at 0.03.
On to GGCAGAGCUUAACACAGCGUGGCAAAGUGCCUGUGGCUAGUCUACC [C10U G30C A41U G44A], for which the self-cleavage was found to be 0.02.
With GGCAGAGCUUAACACAGCGUGUUAAAGUGGCUGUGGCUAGACUGCC [C10U G22U C23U], the self-cleavage came to 0.24.
The figure for GGCAGAGCUUAACACAGCGUGGCAAAUGGGCUGUGGCUAGACUGCC [C10U G27U U28G] is 0.14; for GGCAGAGCUUAACACAGCGUGGCAAAGUGGCUGUGUCUAGAGUGCC [C10U G36U C42G] it is 0.
GGCAGAGCUUAACACAGCGUUGCAGAGUGGCUGUGGUUAGAGUGCC [C10U G21U A25G C37U C42G]: the self-cleavage was 0.
As for GGCAGAGCUUAACACAGCGUCCCAAAGUGGCUGUGGCUAGACUGCC [C10U G21C G22C], the self-cleavage is 0.02.
For GGCAGAGCUUAACACAGCCUGGCAAAGUGGCCGUGGCUAGACUGCC [C10U G19C U32C], the self-cleavage stood at 0.09.
Turning to GGCAGAGCUUAACACAGCGUGGCAAAUUGGCUGUGCCUAGCCUGCC [C10U G27U G36C A41C], the self-cleavage stood at 0.05.
In the case of GGCAGAGCUUAACACAGCGUGGCAAAGUGACUGUGCUUAGACGGGC [C10U G30A G36C C37U U43G C45G], the self-cleavage is 0.01.
For the variant GGCAGAGCUUAACACAGCGUGACAAAGAGGCUGUGGCUAGACUGCC [C10U G22A U28A], the self-cleavage worked out at 0.16.
Regarding GGCAGAGCUUAACACAGCGUGGCAAAGUGCCUGUUGCUAGACUGCC [C10U G30C G35U], the self-cleavage stood at 0.04.
For GGCAGAGCUUAACACAGCGUGGCAAAGUAGCUGUGUCUAGACUGCC [C10U G29A G36U], the self-cleavage turned out to be 0.02.
For GGCAGAGCUUAACACAGCGUGGCAAAGUGGCUUUGGCUAGACUGAC [C10U G33U C45A], the self-cleavage was found to be 0.06.
For the variant GGCAGAGCUUAACACAGCGUGGCAAAGUUACUGUGGCUAGACUGAC [C10U G29U G30A C45A], the self-cleavage was 0.11.
GGCAGAGCUUAACACAGCCCGGCAAAGUGGAAGUGGCUAGACUGCC [C10U G19C U20C C31A U32A]: the self-cleavage is 0.39.
Take GGCAGAGCUUAACACAGCCUAGCAAAGUGGCUGUGGCUAGACUCUC [C10U G19C G21A G44C C45U]: the self-cleavage was found to be 0.01.
With GGCAGAGCUUAACACAGCGUGGCAAAGUGGCUGUAGAUAGACUGCC [C10U G35A C37A], the self-cleavage came to 0.02.
Turning to GGCAGAGCUUAACACAGCGUGGCAAAGUAGCUGUGGCUAGAUUGCC [C10U G29A C42U], the self-cleavage was 0.08.
As for GGCAGAGCUUAACACAGCGUGGCAAAGUGCCUGUGGCUCGACUGCC [C10U G30C A39C], the self-cleavage is 0.05.
On to GGCAGAGCUUAACACAGCAUGGCAAAACGGCUGCGGCUAGACUGCC [C10U G19A G27A U28C U34C], for which the self-cleavage amounted to 0.2.
For the variant GGCAGAGCUUAACACAGCGUGGCAAAGUGCCUGUGGCUAGAAUGCC [C10U G30C C42A], the self-cleavage is 0.08.
As for GGCAGAGCUUAACACAGCGUGGCAAAGUGGCUGUGGCUAACCUGCC [C10U G40A A41C], the self-cleavage is 0.03.
With GGCAGAGCUUAACACAGCGUGGCAAAGUGGCUGUCGCUGGACUGCC [C10U G35C A39G], the self-cleavage stood at 0.03.
For GGCAGAGCUUAACACAGCGUGGCAAAGUGACUGUGGCUAGACUUAC [C10U G30A G44U C45A] the value was 0.12.
For GGCAGAGCUUAACACAGCUUGGCAAAGUGGCUGUGACCAGCCUGCC [C10U G19U G36A U38C A41C] the value was 0.03.
With GGCAGAGCUUAACACAGCGUGGCAAAAUGGCCGUGGCUAGAAUGCC [C10U G27A U32C C42A], the self-cleavage came to 0.03.
The figure for GGCAGAGCUUAACACAGCGUUGCAAAGUGGCUGUGGCUAUACUGCC [C10U G21U G40U] is 0.02; for GGCAGAGCUUAACACAGCGUGAUAAAGUGGCUGUGGCUAGACUGCC [C10U G22A C23U] it is 0.17.
As for GGCAGAGCUUAACACAGCGUGCCAAAGUGGCUGUUGCUAGACUGCC [C10U G22C G35U], the self-cleavage is 0.06.
On to GGCAGAGCUUAACACAGCGUGGCAAAGUUGCUGUGGCUAGACUUCC [C10U G29U G44U], for which the self-cleavage was determined as 0.
Turning to GGCAGAGCUUAACACAGCGUGGCAAAGUGGCUUUGGCUAGACUCCC [C10U G33U G44C], the self-cleavage was 0.02.
Turning to GGCAGAGCUUAACACAGCGUGGCAAAGUCGCUGUCGCUAGACUGCC [C10U G29C G35C], the self-cleavage is 0.02.
Turning to GGCAGAGCUUAACACAGCGUGGCAAAGUGACUGUUGCUAGACUGUC [C10U G30A G35U C45U], the self-cleavage was 0.03.
For GGCAGAGCUUAACACAGCGUACCAAAGUGGCUGUGGCUAGACUGCC [C10U G21A G22C] the value was 0.3; for GGCAGAGCUUAACACAGCCUGUCAAAGUGUCUGUGACUAGACUGCU [C10U G19C G22U G30U G36A C46U], 0.01.
For GGCAGAGCUUAACACAGCGUCGUAAAGUGGCUGUGGCUAGACUGAC [C10U G21C C23U C45A], the self-cleavage stood at 0.09.
In the case of GGCAGAGCUUAACACAGCGUGGCAAAGUGCCUGUGGAUAGACUGCC [C10U G30C C37A], the self-cleavage stood at 0.02.
Regarding GGCAGAGCUUAACACAGCGUGGCAAAGUGUCUGUGGCUAAACUGCA [C10U G30U G40A C46A], the self-cleavage stood at 0.
For the variant GGCAGAGCUUAACACAGCUUUGCAAAGUGGCUGUGGCUAGACUGCC [C10U G19U G21U], the self-cleavage is 0.09.
As to GGCAGAGCUUAACACAGCUUAGCAAAGUGGCUGUGGCUAGACUGCC [C10U G19U G21A], the self-cleavage was 0.82.
With GGCAGAGCUUAACACAGCGUGGCAAAGUGUCUGUGGUUAGACUGCC [C10U G30U C37U], the self-cleavage amounted to 0.04.
In the case of GGCAGAGCUUAACACAGCAUGGCAAAGUGGCUGAGGCUACACUGUC [C10U G19A U34A G40C C45U], the self-cleavage came out at 0.03.
Consider GGCAGAGCUUAACACAGCAUGGCAAAGUGUCUGAGGCUAGACUGCC [C10U G19A G30U U34A], for which the self-cleavage came out at 0.13.
As for GGCAGAGCUUAACACAGCGUUGCUACGUGGCUGUGGCUAGACUGCG [C10U G21U A24U A26C C46G], the self-cleavage turned out to be 0.3.
GGCAGAGCUUAACACAGCGUGGCAAAGUGGCUGUUGCUAGACUGAU [C10U G35U C45A C46U]: the self-cleavage came to 0.02.
In the case of GGCAGAGCUUAACACAGCGUGGCAAAUUGGCUGUGACUCGACUGCC [C10U G27U G36A A39C], the self-cleavage came to 0.05.
For GGCAGAGCUUAACACAGCGUGGCAAAAAAGCUGUGGCUGGAUUGCC [C10U G27A U28A G29A A39G C42U] the value was 0.06; for GGCAGAGCUUAACACAGCUCGCCAAAGUGGCUGUGGCUAGACUGCC [C10U G19U U20C G22C], 0.06; for GGCAGAGCUUAACACAGCGUGGCAAAAUGGCUGUGGCCACAAUGCC [C10U G27A U38C G40C C42A], 0.26.
With GGCAGAGCUUAACACAGCGUGGCAAAGUGUCUGUUGAUAGACUGCC [C10U G30U G35U C37A], the self-cleavage was 0.02.
Consider GGCAGAGCUUAACACAGCAUGGCAAAGUGGCUGUUGCUAGACUGAC [C10U G19A G35U C45A], for which the self-cleavage turned out to be 0.
In the case of GGCAGAGCUUAACACAGCGUGGCAAAGUGGCUGUGUAUGGCCUGCC [C10U G36U C37A A39G A41C], the self-cleavage was found to be 0.
The figure for GGCAGAGCUUAACACAGCUUGGCAAAGUGGCUGGGGCGAGACUGCC [C10U G19U U34G U38G] is 0.
For the variant GGCAGAGCUUAACACAGCCUGGCAAAGUCGCUGUGGCUAGACUGCC [C10U G19C G29C], the self-cleavage was found to be 0.07.
Consider GGCAGAGCUUAACACAGCGUGGCAAAGUGGCUGUUGCUAGACAGCC [C10U G35U U43A], for which the self-cleavage stood at 0.05.
